In patent EP0559700B1, “NOVEL PILOCARPINE DERIVATIVES AND PROCESS FOR THEIR PREPARATION” (Santen Oy, priority 1990, dated 1992):
At least one read-out could not be matched to a standard name with certainty.

Assay: Lipophilicity: partition coefficient (octanol-buffer) and capacity factor by RP-HPLC
Format: physicochemical
Conditions: reverse phase HPLC
Source text: The lipophilicity of the compounds were studied by determining the partition coefficients (P) of the compounds at a pH of 7.40. The measurements were made either in an octanol-buffer mixture by determining the concentration of the compound to be studied in the buffer phase by HPLC. The partition coefficients of the very lipophilic compounds were, however, determined by reverse phase (RP) liquid chromatography (HPLC) from the retention time (Beckmann 116 pump and 166 UV detector; Marathon autom. sample feeder). […] From the results it can be seen that the compounds of the invention are considerably more lipophilic than the pilocarpine.

Structure (SMILES) | Capacity factor (22°C) k'
CC[C@H](C(=O)OCc1ccc(COC(=O)[C@@H](CC)[C@H](CO)Cc2cncn2C)cc1)[C@H](CO)Cc1cncn1C [Example 1, O,O'-Dihydrogen (1,4-xylylene) bispilocarpate] | 0.8101
CC[C@H](C(=O)OCc1cccc(COC(=O)[C@@H](CC)[C@H](CO)Cc2cncn2C)c1)[C@H](CO)Cc1cncn1C [Example 2, O,O'-Dihydrogen (1,3-xylylene) bispilocarpate] | 0.8291
CC[C@H](C(=O)OCc1ccccc1COC(=O)[C@@H](CC)[C@H](CO)Cc1cncn1C)[C@H](CO)Cc1cncn1C [Example 3, O,O'-Dihydrogen (1,2-xylylene) bispilocarpate] | 0.8291
CC[C@H](C(=O)OCCCCCCCOC(=O)[C@@H](CC)[C@H](CO)Cc1cncn1C)[C@H](CO)Cc1cncn1C [Example 4, O,O'-Dihydrogen (1,7-heptylene) bispilocarpate] | 1.1266
CC[C@H](C(=O)OCCCCCCOC(=O)[C@@H](CC)[C@H](CO)Cc1cncn1C)[C@H](CO)Cc1cncn1C [Example 5, O,O'-Dihydrogen (1,6-hexylene) bispilocarpate] | 0.8924
CC[C@H](C(=O)OCCCCCOC(=O)[C@@H](CC)[C@H](CO)Cc1cncn1C)[C@H](CO)Cc1cncn1C [Example 6, O,O'-Dihydrogen (1,5-pentylene) bispilocarpate] | 0.7532
CC[C@H](C(=O)OCCCCOC(=O)[C@@H](CC)[C@H](CO)Cc1cncn1C)[C@H](CO)Cc1cncn1C [Example 7, O,O'-Dihydrogen (1,4-butylene) bispilocarpate] | 0.6582
CC[C@H](C(=O)OCCCOC(=O)[C@@H](CC)[C@H](CO)Cc1cncn1C)[C@H](CO)Cc1cncn1C [Example 8, O,O' -Dihydrogen (1,3-propylene) bispilocarpate] | 0.6139
CCC(=O)OC[C@H](Cc1cncn1C)[C@H](CC)C(=O)OCc1ccc(COC(=O)[C@@H](CC)[C@H](COC(=O)CC)Cc2cncn2C)cc1 [Example 10, O,O'-Dipropionyl (1,4-xylylene) bispilocarpate] | 2.3038
CCCC(=O)OC[C@H](Cc1cncn1C)[C@H](CC)C(=O)OCc1ccc(COC(=O)[C@@H](CC)[C@H](COC(=O)CCC)Cc2cncn2C)cc1 [Example 11, O,O'-Dibutyryl (1,4-xylylene) bispilocarpate] | 4.0127
CCCCC(=O)OC[C@H](Cc1cncn1C)[C@H](CC)C(=O)OCc1ccc(COC(=O)[C@@H](CC)[C@H](COC(=O)CCCC)Cc2cncn2C)cc1 [Example 12, O,O'-Divaleryl (1,4-xylylene) bispilocarpate] | 7.3861
CC[C@H](C(=O)OCc1ccc(COC(=O)[C@@H](CC)[C@H](COC(=O)C2CC2)Cc2cncn2C)cc1)[C@H](COC(=O)C1CC1)Cc1cncn1C [Example 13, O,O'-Dicyclopronylcarbonyl (1,4-xylylene) bispilocarpate] | 2.4684
CC[C@H](C(=O)OCc1ccc(COC(=O)[C@@H](CC)[C@H](COC(=O)c2ccccc2)Cc2cncn2C)cc1)[C@H](COC(=O)c1ccccc1)Cc1cncn1C [Example 14, O,O'-Dibenzoyl (1,4-xylylene) bispilocarpate] | 5.9304
CC[C@H](C(=O)OCc1ccccc1)[C@H](COC(=O)CCCC(=O)OC[C@H](Cc1cncn1C)[C@H](CC)C(=O)OCc1ccccc1)Cc1cncn1C [Example 16, O,O'-Glutaryl (dibenzyl) bispilocarpate] | 3.7658
CC[C@H](C(=O)OCc1ccccc1)[C@H](COC(=O)c1ccc(C(=O)OC[C@H](Cc2cncn2C)[C@H](CC)C(=O)OCc2ccccc2)cc1)Cc1cncn1C [Example 19, O,O'-Terephtaloyl (dibenzyl) bispilocarpate] | 7.3354
